These results are taken from the RNAGym collection of RNA variant scans (doi:10.1093/nar/gkz1192).

B1: CPEB3 Ribozyme (parent)
chain: UAACAGGGGGCCACAGCAGAAGCGUUCACGUCGCAGCCCCUGUCAGAUUCUGGUGAAUCUGCGAAUUCUGCUGUAUAUCUC

Read counts are not given, so values of variants with three or more changes are uncertain.

This series covers variants of B1. In words: self-cleavage, relative activity (ratio to wild type); higher = more cleavage; in vitro, sequencing. An outline of the steps:
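After error-prone PCR and barcoding, CPEB3 ribozyme mutant libraries were transcribed with T7 RNA polymerase at 37°C for 5 hours, then given 15 min with DNase I before an EDTA stop, and they cleaved during both steps. Reverse transcription with template switching preceded Illumina sequencing. Relative activity divides a variant's cleaved/total read fraction by the unmutated ribozyme's. At least 5 reads were required per variant, and three batches were averaged.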
On to A3U A21C G53U, for which the self-cleavage stood at 0.33.

On to A3U U26A U48A U54A A56G, for which the self-cleavage worked out at 0.15.

As to A3G U31C A65G, the self-cleavage came out at 0.58.

With A3G U41A U54A U60C, the self-cleavage was 0.17.

A3U G63A U76C: the self-cleavage turned out to be 1.06.

Turning to A3U A28C U31C U60A U76C, the self-cleavage was 0.31.

For the variant A3G U26C U43C U80C, the self-cleavage amounted to 0.27.

For the variant A3G G7C A45G U49A U58G U78C, the self-cleavage was 0.17.

On to A3U G8U A13U G30A U31C U67C A75G, for which the self-cleavage is 0.04.

Regarding A3U G7U G24A A35G A65U U72C, the self-cleavage was 0.15.

For A3U U48C U58C G63A A64C U80C, the self-cleavage stood at 0.09.

As to A3U U41A U51C, the self-cleavage is 0.27.

On to A3G U51C C59G, for which the self-cleavage was found to be 0.3.

Consider A3G U60C A77G, for which the self-cleavage was 0.48.

As to A3G G36A U49G A56U U80A, the self-cleavage was found to be 0.16.

In the case of A3U A13G U26A A47G U51A G61U, the self-cleavage amounted to 0.77.

Take A3G C38U U54C A75G: the self-cleavage worked out at 0.22.

Turning to A3G U26C C29U A56G, the self-cleavage stood at 0.32.

Consider A3G G10A A28G U41A A56C U58C U60A, for which the self-cleavage is 0.22.

As for A3G G73U U76C, the self-cleavage was found to be 1.2.

On to A3U A28G U49A A64G U72A, for which the self-cleavage came to 0.17.

In the case of A3G G7A U67G, the self-cleavage was found to be 0.06.

Turning to A3G U31A C50G A57G U58A A65U, the self-cleavage is 0.28.

On to A3G U41A U67A, for which the self-cleavage stood at 0.41.

In the case of A3G G8U U43C, the self-cleavage came out at 0.52.

For the variant A3U G7C U54C A56G, the self-cleavage came to 0.53.

Consider A3U A18G U31C A35G C40A A57G, for which the self-cleavage turned out to be 0.42.

With A3U A15U A45G, the self-cleavage was 0.84.

For the variant A3G G7C U25C A45C, the self-cleavage worked out at 0.1.

A3G G33A G36A U58A U60C U74C: the self-cleavage amounted to 0.09.

For the variant A3U C17U U72A, the self-cleavage came to 0.71.

On to A3G C29U A47U G53C A64G U76A, for which the self-cleavage came to 0.07.

Turning to A3U A13G C14A U54A U60C A64G, the self-cleavage turned out to be 0.21.

Take A3G G6A A35U U60C C62U U69A U72C: the self-cleavage turned out to be 0.13.

A3G G19A U26C U49C: the self-cleavage was found to be 0.08.

For A3G U26A U48C, the self-cleavage amounted to 0.37.

As to A3G G6A A28U C37U U66C, the self-cleavage stood at 0.25.

Consider A3U A15C G30U, for which the self-cleavage was determined as 0.35.

Turning to A3U C38U A65G U66C C71A U76C, the self-cleavage worked out at 0.21.

Take A3G U31A U72C: the self-cleavage is 0.5.

For A3G U25A U43A G63U, the self-cleavage stood at 0.29.

Take A3G G8A A75G U76C: the self-cleavage came out at 0.09.

Regarding A3G U31C U67C U74C, the self-cleavage was 0.25.

Take A3G G10C A15C U41A U48C: the self-cleavage stood at 0.49.

As to A3U G8U G19U U58A A64G U78C, the self-cleavage is 0.06.

Take C4A A56U A64G U72C U76C: the self-cleavage amounted to 0.84.

As to A3G G24A A28U A56U A64G U78C, the self-cleavage was found to be 0.07.

Take A3U A35U U66C U67C: the self-cleavage was 0.19.

Regarding A3U A21G A47G U51C U67C, the self-cleavage worked out at 0.38.

For A3G G6A A28G U41A A64U U72C, the self-cleavage was 0.05.

Take A3U A56G U78C: the self-cleavage stood at 0.86.

In the case of A3G G46U U49C U80G, the self-cleavage came to 0.1.

Turning to A3G U26C U49C U58C U80A, the self-cleavage was 0.13.

In the case of A3G U25C U66G U72C U78A, the self-cleavage was found to be 0.

A3U G6U U54C G55A G61C A64G: the self-cleavage came out at 0.21.

A3U U60C C71U: the self-cleavage was 0.42.

In the case of A3G U26C A45G U51A, the self-cleavage worked out at 0.36.

As for A3G U26C U51A U76C, the self-cleavage worked out at 0.25.

As to A3U A15G U41A, the self-cleavage was found to be 0.36.

In the case of A3U U49C A57G U67C, the self-cleavage was determined as 0.57.

As for A3G C34U U66A U74A, the self-cleavage was 0.36.

A3U A13C U80C: the self-cleavage was 1.18.

Take A3U A28G U72A: the self-cleavage came out at 0.64.

Regarding A3U A15U A45U U69A, the self-cleavage turned out to be 0.13.

Turning to A3G G7U A21U U43A G52C U60A U80C, the self-cleavage was 0.06.

As for A3U G10U U51A G70A U80C, the self-cleavage came to 0.13.

Turning to A3U A15G A57G U78C C79G U80C, the self-cleavage was 0.95.

Turning to A3G U25C G52C U60C, the self-cleavage is 0.23.

As to A3G G7U A15U C23U C38U U49C U80A, the self-cleavage was 0.04.

On to A3U A18G G52A U60A, for which the self-cleavage worked out at 0.33.

In the case of A3G G16C A28G U41A U43A U49C, the self-cleavage was 0.11.

A3U A35U A56U: the self-cleavage came to 0.42.

Consider A3G U25C A28G A77G, for which the self-cleavage turned out to be 0.58.

On to A3U A13G A18C A28G C40U U76A U80C, for which the self-cleavage is 0.17.

Consider A3G U51G U72C, for which the self-cleavage is 1.21.

In the case of A3U U25C U58C C59A A64G, the self-cleavage is 0.28.

On to A3G U25A U26C A75U, for which the self-cleavage worked out at 0.65.

A3U A13U C38A: the self-cleavage was 0.33.

As to A3U U26C U58A U76C, the self-cleavage was determined as 0.2.

As for C4A A5C A45G U54C, the self-cleavage worked out at 0.81.

As to A3G G16U C37U U60A, the self-cleavage came out at 0.09.

As for A3G G7A U25C A64G, the self-cleavage worked out at 0.23.

Consider A3U U60C U74C U80C, for which the self-cleavage was 0.74.

Consider A3G G9A G24A G33U C50A U51C, for which the self-cleavage is 0.
